Results as given in the supplement of paper PMC11417369.
This is one part of the list.

tested on: PfHDP1 homeodomain (GST-tagged); test: gcPBM binding intensity (ln(normalized median fluorescence intensity)); higher = stronger DNA binding
Outline: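 Probes on an Agilent 4 × 180k array were primer-extended, double-stranded and 36 bp long, taken from intergenic genomic regions, with negative controls added. GST-tagged P. falciparum DNA-binding domains from E. coli, about 25 μg on average, were applied to the array for 1 h in 1× PBS containing 1% milk, 0.2 mg/ml BSA, 0.5% salmon testes DNA and 0.03% Triton X-100. Binding intensity, obtained after Alexa488 anti-GST antibody detection and a 488 nm scan, is the highest Masliner-normalised natural-log median intensity across replicate spots of either probe orientation.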

| Sequence | gcPBM binding intensity (ln) |
| --- | --- |
| AGATTATAAAATTCTACACACATATATACCTATATA [CACACA_site5848] | 6.37 |
| ACCATACAGAATAATGCATGTTCCTTTTTATGAATA [TGCATGCA_site995] | 6.67 |
| TATACTTGTAAATGCACACATAAGATGCGACTAATG [CACACA_site2118] | 9.37 |
| AAAAAAATAAAGGATATACACACTAATTATATATAT [CACACA_site2812] | 6.6 |
| AATAAATATATATACACACCCATATATATATATATA [CACACA_site2595] | 9.48 |
| GCGTATACTTGTAACGGTACACAGGAAATTATAGAA [XGTACX_site507] | 6.68 |
| AAGATACACCTTTTTAGTACTTACATTTTTTTTATT [XGTACX_site1373] | 6.55 |
| TCTTTGTTTTTTTTTTTTAAACAAAATCATCAAAGG [XGTACX_negctrl_site192] | 6.09 |
| TATATATATGGACACACACACACCAAAGCGTAGCGC [CACACA_site4209] | 6.71 |
| TTAATGAAATATTATACACACAAAAAAATAATTTTA [CACACA_site4231] | 6.43 |
| TAATGTTGTTTCTGAGGTACACAATTTTTTTTATTT [XGTACX_site8035] | 6.15 |
| TACACTTTTTTTTGTACACACTAAAAAGATTAACAA [CACACA_site6037] | 6.54 |
| TTTTTTTTTTGATGAGCACACATGTTTTTTCTTAGA [CACACA_site3171] | 6.92 |
| AAAAAATATTTATGTTCACACATTTTATATATGATA [CACACA_site4821] | 6.46 |
| AAATATTTTTAAAGAAGTACTTTTTAAAAATAATCT [XGTACX_site4897] | 6.32 |
| TAATTTTCATATTTCTGTACATATATTATAAATATA [XGTACX_site3480] | 6.45 |
| AGAAAAAAAAAAAAAAAACACACGGTACATTCAAAG [CACACA_site2] | 6.24 |
| TAATATATATATATTACACACACGTATTATTAAATA [CACACA_site432] | 6.81 |
| TGTATGTATAATTGAGTGCACAGAAAAAAAAAAGAA | 10.6 |
| GTAGACTGAAACCACACACACATATATAAATATATT [CACACA_site6433] | 6.78 |
| AAAAAAAAAAATGGTTGTACTTTTTTTATTTGGTGC [XGTACX_site4498] | 6.18 |
| TATAAAAGTAGACACACACACATATAAATATAAATA [CACACA_site6567] | 6.8 |

| Sequence | gcPBM binding intensity (ln) |
| --- | --- |
| TCTATATCAACCAGTTGTACTGAATTTACTATATTT [XGTACX_site4205] | 6.18 |
| ATAGACTTTTGTTTTGTTTTATTTTATTGTATTGTA [CACACA_negctrl_site618] | 6.5 |
| TCTAACATATTTTTAATACACACTTAAAAAAGTACT [CACACA_site1366] | 6.49 |
| ATTTACATTATATTGAATATGCCATATTATATTATT [CACACA_negctrl_site811] | 6.59 |
| AATGCTTTTCATCAAGTGCAATATGTTAATACAAAC [GTGCAC_site9619] | 8.54 |
| TAAATTAAGAATTTTACACACATTAAATAAAAAAAA [CACACA_site3638] | 6.18 |
| AAAAAAAAAAAAAATTCACACACATATAAAAAATTA [CACACA_site8140] | 6.25 |
| TTTTTTTATTTTTTTATAAATGTATTTCTATTATTT [CACACA_negctrl_site1562] | 6.19 |
| AAATTAGGAAATTGCACACAAAAAAAAACATATTAT [CACACA_site4074] | 9.97 |
| TATAAAATGACTATATATAATATTAAAAAAAAAAAA [TGCATGCA_negctrl_site387] | 5.97 |
| ATTATATATACATAATGTACATATATATATTACCTT [XGTACX_site7624] | 6.63 |
| CTATTGTTAAATATAATACACACGTTTTTAAAAATA [CACACA_site2183] | 6.52 |
| ATAGTAATGCATAAATATATATTATATATATATATA [XGTACX_negctrl_site576] | 8.75 |
| GTATATATTTTGTATTCATTTGTCACATATAATAGA [CACACA_negctrl_site506] | 6.61 |
| TTTTTTTTTTTTTGTGTGCACCTTATTTTTTTGTAT [GTGCAC_site9617] | 9.14 |
| CAAACACCCAAACACACACACACATACATACATACA [CACACA_site8044] | 7.82 |
| TATAAATAGGCATATACACACTTTTAATATTCATAA [CACACA_site6123] | 6.58 |
| TCTTTCTCTCTTCAAAGTACATATAATATATACTTC [XGTACX_site7982] | 6.69 |
| ATAACAACATTTGATAAACACACAGAAGTATAAATA [CACACA_site8739] | 6.63 |
| CAGTTAATGTTGGTACTTTATATAAAAATGATATGA [CACACA_negctrl_site1600] | 6.67 |
| AAAATATAGTTATCAATATATAATATTTTTTTTTTA [CACACA_negctrl_site459] | 5.91 |
| TTATTAATATTGCATGCACACTATATAATAATTGAA [CACACA_site8258] | 8.77 |
